The record followed here is patent US11457629B2, “Heteroarylphenylaminoquinolines and analogues” (Bayer Aktiengesellschaft, priority 2017, dated 2022).

The method of the series in brief: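 Values were calibrated against C3–C16 straight-chain alkan-2-ones of known Log P, interpolating linearly between retention times. Separation used reversed-phase HPLC with 0.1% formic acid (acidic range), per EEC 79/831 Annex V.A8. Multiple values from one method are all reported, separated by "+".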
As to `CCn1nccc1-c1c(Nc2cnc3c(F)c(F)ccc3c2)ccc(F)c1F` [Example I-245], the logP is 3.28 ^[a].
The same measure, in the same setting: then `CCn1nccc1-c1c(Nc2cnc3ccccc3c2Cl)ccc(F)c1F` [Example I-246], with 3.39 ^[a]; and `CCn1nccc1-c1c(Nc2nc3ccccc3nc2C)ccc(F)c1F` [Example I-247], with 3.33 ^[a]; and `Cc1cccc2cc(Nc3ccc(F)cc3-c3cncn3C)cnc12` [Example I-248], with 1.51 ^[a].
On to `Cn1cncc1-c1cc(F)ccc1Nc1cnc2c(C(F)(F)F)cccc2c1` [Example I-249], for which the “Log P” value is 1.96 ^[a].
On the same count and under the same terms, with `CCn1nccc1-c1c(Nc2cnc3c(F)c(F)ccc3n2)ccc(F)c1F` [Example I-250] the figure was 3.79 ^[a]; with `CCn1nccc1-c1c(Nc2nc3ccc(F)c(F)c3nc2C)ccc(F)c1F` [Example I-251], 3.92 ^[a]; with `Cn1nccc1-c1cc(F)ccc1Cc1cnc2c(F)cccc2c1` [Example I-252], 2.70 ^[a].
On the same count and under the same terms, with `Cn1nccc1-c1cc(OC(F)(F)F)ccc1Nc1cnc2c(F)cccc2c1` [Example I-253] the figure was 3.37 ^[a]; with `Cc1nc2ccccc2nc1Nc1ccc(OC(F)(F)F)cc1-c1ccnn1C` [Example I-254], 3.63 ^[a]; with `Cn1nccc1-c1cc(OC(F)(F)F)ccc1Nc1cnc2c(F)c(F)ccc2c1` [Example I-255], 3.62 ^[a].
Take `Cn1nccc1-c1cc(OC(F)(F)F)ccc1Nc1cnc2ccccc2c1Cl` [Example I-256]: the “Log P” value was 3.83 ^[a].
Same read-out and setting: with `Cc1c(Nc2ccc(OC(F)(F)F)cc2-c2ccnn2C)cnc2ccccc12` [Example I-257] the figure was 2.68 ^[a]; with `Cn1nccc1-c1cc(OC(F)(F)F)ccc1Nc1cnc2c(F)c(F)ccc2n1` [Example I-258], 3.80 ^[a]; with `Cn1nccc1-c1cc(OC(F)(F)F)ccc1Nc1cnc2ccnn2c1` [Example I-259], 2.66 ^[a].
On the same count and under the same terms, with `CCn1nccc1-c1c(F)c(F)cc(F)c1Nc1cnc2ccccc2c1C` [Example I-260] the figure was 1.98 ^[a].
Take `CCn1nccc1-c1c(Nc2cnc3ccccc3c2C)ccc(F)c1F` [Example I-261]: the “Log P” value was 2.39 ^[a].
Same read-out and setting: then `CCn1nccc1-c1c(F)ccc(F)c1Nc1cnc2ccccc2c1C` [Example I-262], with 1.88 ^[a].
Same read-out and setting: then `CCn1ncc(F)c1-c1c(F)ccc(F)c1Nc1cnc2ccccc2c1C` [Example I-263], with 2.25 ^[a].
On the same count and under the same terms, with `CCn1nccc1-c1c(F)ccc(F)c1Nc1cnc2c(F)c(F)ccc2c1F` [Example I-264] the figure was 3.19 ^[a]; with `CCn1nccc1-c1c(F)ccc(F)c1Nc1cnc2c(F)c(F)ccc2c1` [Example I-265], 2.98 ^[a].
Regarding `CCn1nccc1-c1c(F)cccc1Nc1c[nH]c2c(F)c(F)ccc2c1=O` [Example I-266], the “Log P” value was 2.37 ^[a].
Still for that read-out and setting: with `CCn1nccc1-c1c(F)ccc(F)c1Nc1c[nH]c2c(F)c(F)ccc2c1=O` [Example I-267] the figure was 2.20 ^[a]; with `CCn1nccc1-c1c(Nc2cnc3c(F)c(F)ccc3c2F)ccc(F)c1F` [Example I-268], 3.49 ^[a].
The same measure, in the same setting: with `CCn1nccc1-c1c(Nc2c[nH]c3c(F)c(F)ccc3c2=O)ccc(F)c1F` [Example I-269] the figure was 2.49 ^[a].
The same measure, in the same setting: with `Cn1nccc1-c1c(F)cccc1Nc1c[nH]c2c(F)c(F)ccc2c1=O` [Example I-270] the figure was 2.16 ^[a]; with `Cn1nccc1-c1c(F)ccc(F)c1Nc1cnc2c(F)c(F)ccc2c1` [Example I-271], 2.71 ^[a].
Take `Cn1nccc1-c1c(F)ccc(F)c1Nc1c[nH]c2c(F)c(F)ccc2c1=O` [Example I-272]: the “Log P” value was 2.00 ^[a].
In the case of `Cn1nccc1-c1c(Nc2cnc3c(F)c(F)ccc3c2F)ccc(F)c1F` [Example I-273], the “Log P” value is 3.11 ^[a].
Take `Cn1nccc1-c1c(Nc2c[nH]c3c(F)c(F)ccc3c2=O)ccc(F)c1F` [Example I-274]: the “Log P” value was 2.23 ^[a].
On the same count and under the same terms, with `Cn1nccc1-c1c(F)cccc1Nc1cnc2c(F)c(F)ccc2c1F` [Example I-275] the figure was 3.08 ^[a].
Same read-out and setting: then `CCn1nccc1-c1ccccc1Cc1cc2ccc(F)c(F)c2nc1C` [Example I-277], with 3.33 ^[a].
The same measure, in the same setting: then `Cc1nc2c(F)c(F)ccc2cc1Nc1ccc(F)cc1-c1ccnn1C(C)(C)C` [Example I-279], with 4.25 ^[a]; and `Cc1nc2c(F)c(F)ccc2cc1Nc1ccc(F)cc1-c1ccnn1CC(F)(F)F` [Example I-281], with 4.49 ^[a]; and `Cc1nc2c(F)c(F)ccc2cc1Nc1cccc(F)c1-c1c(C(F)(F)F)cnn1C` [Example I-282], with 3.76 ^[a].
`Cc1nc2c(F)c(F)ccc2cc1Nc1cccc(F)c1-c1c(C)nn(C)c1C` [Example I-284]: the “Log P” value is 3.19 ^[a].
On the same count and under the same terms, then `Cc1nc2c(F)c(F)ccc2cc1Nc1cccc(F)c1-c1ccnn1CC(F)(F)F` [Example I-285], with 4.58 ^[a]; and `Cc1cnn(C)c1-c1c(F)cccc1Nc1cc2ccc(F)c(F)c2nc1C` [Example I-287], with 3.23 ^[a].
Same read-out and setting: then `Cc1nc2c(F)c(F)ccc2cc1Cc1ccccc1-c1ccnn1Cc1ccccc1` [Example I-288], with 4.13 ^[a]; and `Cc1nc2c(F)c(F)ccc2cc1Cc1ccccc1-c1ccnn1CC(C)C` [Example I-289], with 4.11 ^[a]; and `Cc1nc2c(F)c(F)ccc2cc1Cc1ccccc1-c1ccnn1C` [Example I-290], with 3.00 ^[a].
The same measure, in the same setting: then `Cc1nc2c(F)c(F)ccc2cc1Nc1ccc(F)cc1-c1ccnn1C(C)C` [Example I-291], with 3.59 ^[a].
In the case of `Cc1cnn(C)c1-c1ccccc1Cc1cc2ccc(F)c(F)c2nc1C` [Example I-292], the “Log P” value was 3.21 ^[a].
Turning to `CCCn1nccc1-c1ccccc1Cc1cc2ccc(F)c(F)c2nc1C` [Example I-293], the “Log P” value is 3.72 ^[a].
On the same count and under the same terms, with `Cc1nc2c(F)c(F)ccc2cc1Cc1ccccc1-c1c(Cl)cnn1C` [Example I-294] the figure was 3.55 ^[a].
Still for that read-out and setting: then `Cc1nc2c(F)c(F)ccc2cc1Nc1ccc(F)cc1-c1cc(C(F)(F)F)nn1C(C)C` [Example I-295], with 4.53 ^[a]; and `Cc1nc2c(F)c(F)ccc2cc1Nc1ccc(F)cc1-c1ccnn1C1CC1` [Example I-296], with 3.41 ^[a]; and `Cc1cnn(C)c1-c1cc(F)ccc1Nc1cc2ccc(F)c(F)c2nc1C` [Example I-297], with 3.13 ^[a].
Take `Cc1cc(-c2cc(F)ccc2Nc2cc3ccc(F)c(F)c3nc2C)n(C)n1` [Example I-298]: the “Log P” value was 3.11 ^[a].
Same read-out and setting: then `Cc1nc2c(F)c(F)ccc2cc1Nc1cccc(F)c1-c1ccnn1Cc1ccccc1` [Example I-299], with 4.03 ^[a]; and `Cc1nc2c(F)c(F)ccc2cc1Nc1ccc(F)cc1-c1cc(C(F)(F)F)nn1C` [Example I-300], with 3.83 ^[a].
For the compound `CCCn1nccc1-c1cc(F)ccc1Nc1cc2ccc(F)c(F)c2nc1C` [Example I-301], the “Log P” value was 3.59 ^[a].
On the same count and under the same terms, then `Cc1nc2c(F)c(F)ccc2cc1Nc1cccc(F)c1-c1ccnn1C1CC1` [Example I-302], with 3.50 ^[a]; and `Cc1nc2c(F)c(F)ccc2cc1Nc1cccc(F)c1-c1cc(C(F)(F)F)nn1C` [Example I-303], with 3.94 ^[a]; and `Cc1nc2c(F)c(F)ccc2cc1Nc1cccc(F)c1-c1c(Cl)cnn1C` [Example I-304], with 3.46 ^[a].
The same measure, in the same setting: then `Cc1nc2c(F)c(F)ccc2cc1Nc1cccc(F)c1-c1cc(C(F)(F)F)nn1C(C)C` [Example I-305], with 4.76 ^[a]; and `Cc1nc2c(F)c(F)ccc2cc1Nc1cccc(F)c1-c1ccnn1CC(C)C` [Example I-306], with 4.06 ^[a]; and `Cc1nc2c(F)c(F)ccc2cc1Cc1ccccc1-c1ccnn1C(C)(C)C` [Example I-307], with 4.20 ^[a].
On to `Cc1nc2c(F)c(F)ccc2cc1Nc1ccc(F)cc1-c1c(C(F)(F)F)cnn1C` [Example I-308], for which the “Log P” value was 3.72 ^[a].
On the same count and under the same terms, with `Cn1nccc1-c1c(F)ccc(F)c1Nc1cnc2c(F)c(F)ccc2c1F` [Example I-309] the figure was 2.86 ^[a]; with `CCn1nccc1-c1c(F)ccc(F)c1Nc1nc2ccccc2nc1C` [Example I-310], 2.61 ^[a]; with `CCn1ncc(F)c1-c1c(F)ccc(F)c1Nc1nc2ccccc2nc1C` [Example I-311], 2.88 ^[a].
For the compound `CCn1ncc(F)c1-c1c(F)cccc1Nc1nc2ccccc2nc1C` [Example I-312], the “Log P” value is 3.29 ^[a].
Still for that read-out and setting: then `CCn1nccc1-c1c(F)ccc(F)c1Nc1nc2ccccc2nc1CF` [Example I-313], with 2.96 ^[a]; and `CCn1ncc(F)c1-c1c(F)c(F)cc(F)c1Nc1nc2ccccc2nc1C` [Example I-314], with 3.15 ^[a].
The same measure, in the same setting: then `CCn1nccc1-c1c(F)ccc(F)c1Nc1cnc2ccccc2c1Cl` [Example I-315], with 3.17 ^[a].
Same read-out and setting: with `CCn1ncc(Cl)c1-c1c(Nc2cnc3ccccc3c2Cl)ccc(F)c1F` [Example I-316] the figure was 4.08 ^[a]; with `CCn1nccc1-c1c(F)c(F)cc(F)c1Nc1cnc2ccccc2c1Cl` [Example I-317], 3.25 ^[a].
`CCn1ncc(F)c1-c1c(F)ccc(F)c1Nc1cnc2ccccc2c1Cl` [Example I-318]: the “Log P” value was 3.39 ^[a].
`CCn1ncc(F)c1-c1c(Nc2nc3ccccc3nc2C)ccc(F)c1F` [Example I-319]: the “Log P” value was 3.31 ^[a].
Take `Cc1cc(-c2ccccc2Cc2cc3ccc(F)c(F)c3nc2C)n(C)n1` [Example I-320]: the “Log P” value is 3.19 ^[a].
Still for that read-out and setting: with `C=CCn1nccc1-c1ccccc1Cc1cc2ccc(F)c(F)c2nc1C` [Example I-321] the figure was 3.87 ^[a].
On to `Cc1nc2c(F)c(F)ccc2cc1Nc1ccc(F)cc1-c1c(Cl)cnn1C` [Example I-322], for which the “Log P” value was 3.50 ^[a].
